Experimental findings from the supplement of paper PMC4604168 (melanoma cell lines) are described below.

Molecules are shown by their SMILES. Some of the results follow. Single values are uncertain, as repeats are few or missing.
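Note: cells treated in 1,536-well plates, then fixed and DAPI-stained, with nuclei counted from automated high-throughput microscope images.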

The test system of one test is SkMel30. The experiment in a line: cell count relative to DMSO control; melanoma cells; higher = more viable cells. The conditions noted are these: library dose: standard library concentration; 72 h.
With `CCN(CC)CCNC(=O)c1c(C)[nH]c(/C=C2\C(=O)Nc3ccc(F)cc32)c1C` [sunitinib] + CO[C@@H]1[C@H](N(C)C(=O)c2ccccc2)C[C@H]2O[C@]1(C)n1c3ccccc3c3c4c(c5c6ccccc6n2c5c31)C(=O)NC4 [Midostaurin] (first compound 2 µM, partner dose 0.4 µM), the cell count came to 54.4%. The compound `COc1cc([C@@H]2c3cc4c(cc3[C@@H](O[C@@H]3O[C@@H]5CO[C@@H](C)O[C@H]5[C@H](O)[C@H]3O)[C@H]3COC(=O)[C@H]23)OCO4)cc(OC)c1O` [etoposide] + CC(C)(C)c1cnc(CSc2cnc(NC(=O)C3CCNCC3)s2)o1 [SNS-032] (first compound 0.1 µM, partner dose 0.05 µM) gave a cell count of 102%.

With `C[C@]1(O)C[C@@H](c2nc(-c3ccc4ccc(-c5ccccc5)nc4c3)c3c(N)nccn32)C1` + C=CCn1c(=O)c2cnc(Nc3ccc(N4CCN(C)CC4)cc3)nc2n1-c1cccc(C(C)(C)O)n1 [MK1775] (first compound 2 µM, partner dose 0.1 µM), the cell count is 73.4%. Still for that read-out and setting: in the case of `COc1cc([C@@H]2c3cc4c(cc3[C@@H](O[C@@H]3O[C@@H]5CO[C@@H](C)O[C@H]5[C@H](O)[C@H]3O)[C@H]3COC(=O)[C@H]23)OCO4)cc(OC)c1O` [etoposide] + O=C(CCCCCCC(=O)Nc1ccccc1)NO [vorinostat] (first compound 0.1 µM, partner dose 0.4 µM) it was 77.8%; in that of `COc1cc([C@@H]2c3cc4c(cc3[C@@H](O[C@@H]3O[C@@H]5CO[C@@H](C)O[C@H]5[C@H](O)[C@H]3O)[C@H]3COC(=O)[C@H]23)OCO4)cc(OC)c1O` [etoposide] + O=C(O)c1ccc(-c2c[nH]c3ncc(-c4ccccc4)cc23)cc1C1CCCC1 [GSK650394] (first compound 0.1 µM, partner dose 0.8 µM), 85.1%; in that of `Cn1cnc2c(F)c(Nc3ccc(Br)cc3Cl)c(C(=O)NOCCO)cc21` [selumetinib] + Cc1ccc(NC(=O)c2cccc(N(C)C)c2)cc1NC(=O)c1ccc(O)cc1 [ZM336372] (first compound 0.075 µM, partner dose 10 µM), 69.7%. Compound `C[C@]1(O)C[C@@H](c2nc(-c3ccc4ccc(-c5ccccc5)nc4c3)c3c(N)nccn32)C1` + OCCn1cc(-c2cnc3nnn(Cc4ccc5ncccc5c4)c3n2)cn1 [PF04217903] (first compound 2 µM, partner dose 5 µM) showed a cell count of 110%. `CCN(CC)CCNC(=O)c1c(C)[nH]c(/C=C2\C(=O)Nc3ccc(F)cc32)c1C` [sunitinib] + CN(C)S(=O)(=O)c1ccc2c(c1)/C(=C/c1cc3c([nH]1)CCCC3)C(=O)N2 [SU6656] (first compound 2 µM, partner dose 2 µM) showed a cell count of 65.2%. Still for that read-out and setting: in the case of `CCN(CC)CCNC(=O)c1c(C)[nH]c(/C=C2\C(=O)Nc3ccc(F)cc32)c1C` [sunitinib] + CC(C)(C)c1cnc(CSc2cnc(NC(=O)C3CCNCC3)s2)o1 [SNS-032] (first compound 2 µM, partner dose 0.05 µM) it was 47.4%. The same measure, in the same setting: in the case of `Cn1cnc2c(F)c(Nc3ccc(Br)cc3Cl)c(C(=O)NOCCO)cc21` [selumetinib] + O=C(Nc1cccc(Cl)c1)Nc1ncc(CCNc2ncnc3ccsc23)s1 [SNS314] (first compound 0.075 µM, partner dose 0.004 µM) it was 61.1%. Still for that read-out and setting: next, `COc1cc([C@@H]2c3cc4c(cc3[C@@H](O[C@@H]3O[C@@H]5CO[C@@H](C)O[C@H]5[C@H](O)[C@H]3O)[C@H]3COC(=O)[C@H]23)OCO4)cc(OC)c1O` [etoposide] + CC1(C)NC(=O)N(c2ccc([N+](=O)[O-])c(C(F)(F)F)c2)C1=O [nilutamide] (first compound 0.1 µM, partner dose 5 µM): 90.9%.

The next test relates to SkMel5. The test is described as above. Conditions: library dose: standard library concentration; 72 h.
`COc1cc([C@@H]2c3cc4c(cc3[C@@H](O[C@@H]3O[C@@H]5CO[C@@H](C)O[C@H]5[C@H](O)[C@H]3O)[C@H]3COC(=O)[C@H]23)OCO4)cc(OC)c1O` [etoposide] + NC(=O)Nc1cc(-c2cccc(F)c2)sc1C(=O)N[C@H]1CCCNC1 [AZD7762] (first compound 0.1 µM, partner dose 0.1 µM) registered a cell count of 74.7%. The same measure, in the same setting: in the case of `Cn1cnc2c(F)c(Nc3ccc(Br)cc3Cl)c(C(=O)NOCCO)cc21` [selumetinib] + CN(C)S(=O)(=O)c1ccc2c(c1)/C(=C/c1cc3c([nH]1)CCCC3)C(=O)N2 [SU6656] (first compound 0.075 µM, partner dose 2 µM) it was 68.8%; in that of `C[C@]1(O)C[C@@H](c2nc(-c3ccc4ccc(-c5ccccc5)nc4c3)c3c(N)nccn32)C1` + CO[C@@H]1[C@H](N(C)C(=O)c2ccccc2)C[C@H]2O[C@]1(C)n1c3ccccc3c3c4c(c5c6ccccc6n2c5c31)C(=O)NC4 [Midostaurin] (first compound 2 µM, partner dose 0.4 µM), 43.1%; in that of `Cn1cnc2c(F)c(Nc3ccc(Br)cc3Cl)c(C(=O)NOCCO)cc21` [selumetinib] + C[C@@H]1CCN(C(=O)CC#N)C[C@@H]1N(C)c1ncnc2[nH]ccc12 [CP690550] (first compound 0.075 µM, partner dose 5 µM), 90.1%. `Cn1cnc2c(F)c(Nc3ccc(Br)cc3Cl)c(C(=O)NOCCO)cc21` [selumetinib] + OCCn1cc(-c2cnc3nnn(Cc4ccc5ncccc5c4)c3n2)cn1 [PF04217903] (first compound 0.075 µM, partner dose 5 µM) registered a cell count of 84.3%. Same read-out and setting: in the case of `CCN(CC)CCNC(=O)c1c(C)[nH]c(/C=C2\C(=O)Nc3ccc(F)cc32)c1C` [sunitinib] + CC1(C)NC(=O)N(c2ccc([N+](=O)[O-])c(C(F)(F)F)c2)C1=O [nilutamide] (first compound 2 µM, partner dose 5 µM) it was 46%; in that of `Cn1cnc2c(F)c(Nc3ccc(Br)cc3Cl)c(C(=O)NOCCO)cc21` [selumetinib] + CO[C@@H]1[C@H](N(C)C(=O)c2ccccc2)C[C@H]2O[C@]1(C)n1c3ccccc3c3c4c(c5c6ccccc6n2c5c31)C(=O)NC4 [Midostaurin] (first compound 0.075 µM, partner dose 0.4 µM), 57%.

`COc1cc([C@@H]2c3cc4c(cc3[C@@H](O[C@@H]3O[C@@H]5CO[C@@H](C)O[C@H]5[C@H](O)[C@H]3O)[C@H]3COC(=O)[C@H]23)OCO4)cc(OC)c1O` [etoposide] + Cc1cc(N2CCOCC2)cc2[nH]c(-c3c(NC[C@@H](O)c4cccc(Cl)c4)cc[nH]c3=O)nc12 [BMS536924] (first compound 0.1 µM, partner dose 1 µM) registered a cell count of 78.8%.

The compound `Cn1cnc2c(F)c(Nc3ccc(Br)cc3Cl)c(C(=O)NOCCO)cc21` [selumetinib] + C=CCn1c(=O)c2cnc(Nc3ccc(N4CCN(C)CC4)cc3)nc2n1-c1cccc(C(C)(C)O)n1 [MK1775] (first compound 0.075 µM, partner dose 0.1 µM) gave a cell count of 38.3%. Still for that read-out and setting: next, `COc1cc([C@@H]2c3cc4c(cc3[C@@H](O[C@@H]3O[C@@H]5CO[C@@H](C)O[C@H]5[C@H](O)[C@H]3O)[C@H]3COC(=O)[C@H]23)OCO4)cc(OC)c1O` [etoposide] + CO[C@@H]1[C@H](N(C)C(=O)c2ccccc2)C[C@H]2O[C@]1(C)n1c3ccccc3c3c4c(c5c6ccccc6n2c5c31)C(=O)NC4 [Midostaurin] (first compound 0.1 µM, partner dose 0.4 µM): 56.2%. In turn, `CCN(CC)CCNC(=O)c1c(C)[nH]c(/C=C2\C(=O)Nc3ccc(F)cc32)c1C` [sunitinib] + C[C@@H]1CCN(C(=O)CC#N)C[C@@H]1N(C)c1ncnc2[nH]ccc12 [CP690550] (first compound 2 µM, partner dose 5 µM) gave a cell count of 52.5%. Still for that read-out and setting: in the case of `COc1cc([C@@H]2c3cc4c(cc3[C@@H](O[C@@H]3O[C@@H]5CO[C@@H](C)O[C@H]5[C@H](O)[C@H]3O)[C@H]3COC(=O)[C@H]23)OCO4)cc(OC)c1O` [etoposide] + Nc1ccn([C@@H]2O[C@H](CO)[C@@H](O)C2(F)F)c(=O)n1 [gemcitabine] (first compound 0.1 µM, partner dose 0.002 µM) it was 71.7%; in that of `COc1cc([C@@H]2c3cc4c(cc3[C@@H](O[C@@H]3O[C@@H]5CO[C@@H](C)O[C@H]5[C@H](O)[C@H]3O)[C@H]3COC(=O)[C@H]23)OCO4)cc(OC)c1O` [etoposide] + C=CCn1c(=O)c2cnc(Nc3ccc(N4CCN(C)CC4)cc3)nc2n1-c1cccc(C(C)(C)O)n1 [MK1775] (first compound 0.1 µM, partner dose 0.1 µM), 54.9%. Still for that read-out and setting: in the case of `C[C@]1(O)C[C@@H](c2nc(-c3ccc4ccc(-c5ccccc5)nc4c3)c3c(N)nccn32)C1` + Cc1cc(N2CCOCC2)cc2[nH]c(-c3c(NC[C@@H](O)c4cccc(Cl)c4)cc[nH]c3=O)nc12 [BMS536924] (first compound 2 µM, partner dose 1 µM) it was 75.2%; in that of `Cn1cnc2c(F)c(Nc3ccc(Br)cc3Cl)c(C(=O)NOCCO)cc21` [selumetinib] + O=C(CCCCCCC(=O)Nc1ccccc1)NO [vorinostat] (first compound 0.075 µM, partner dose 0.4 µM), 53.4%; in that of `Cn1cnc2c(F)c(Nc3ccc(Br)cc3Cl)c(C(=O)NOCCO)cc21` [selumetinib] + CC(C)(C)c1cnc(CSc2cnc(NC(=O)C3CCNCC3)s2)o1 [SNS-032] (first compound 0.075 µM, partner dose 0.05 µM), 64.6%.
